Data from publication PMC3576711.
No constants are given. Whether binding was seen depends on the method and setting. In cells and extracts the contact can be indirect. Some binding calls cover weakened binding; strength is not graded here. Sequences can lack the tags named with a protein.

Columns and labels:
[1] = target: T1, UNC93B1-WT, C-terminal 3x FLAG tag (3d iMac cells) (mouse) (UniProt Q8VCW4); assay: co-IP; FLAG tagged UNC93B1 precipitated with anti-FLAG matrix from 3d iMac cells expressing TLR9-HA, 1% digitonin; immunoblot with anti-FLAG and anti-HA
T1 sequence: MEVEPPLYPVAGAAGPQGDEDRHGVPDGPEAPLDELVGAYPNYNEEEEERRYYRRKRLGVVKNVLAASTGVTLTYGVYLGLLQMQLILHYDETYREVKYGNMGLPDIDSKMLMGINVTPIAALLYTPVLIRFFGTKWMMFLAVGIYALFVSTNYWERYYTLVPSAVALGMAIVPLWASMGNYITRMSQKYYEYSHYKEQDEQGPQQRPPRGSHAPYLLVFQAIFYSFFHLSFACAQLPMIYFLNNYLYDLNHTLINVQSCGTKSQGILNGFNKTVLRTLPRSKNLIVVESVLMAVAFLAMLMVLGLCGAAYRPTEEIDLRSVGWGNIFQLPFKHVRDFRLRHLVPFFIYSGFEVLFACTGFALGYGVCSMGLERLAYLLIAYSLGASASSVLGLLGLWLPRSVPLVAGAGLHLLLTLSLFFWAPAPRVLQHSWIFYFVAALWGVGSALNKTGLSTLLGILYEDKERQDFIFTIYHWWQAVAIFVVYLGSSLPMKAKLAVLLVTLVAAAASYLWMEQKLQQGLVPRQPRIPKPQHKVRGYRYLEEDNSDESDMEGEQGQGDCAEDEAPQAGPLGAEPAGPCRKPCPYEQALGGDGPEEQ

[2] = target: T2, UNC93B1-WT, C-terminal eGFP tag (3d iMac cells) (mouse) (UniProt Q8VCW4); assay: co-IP; GFP-tagged UNC93B1 immunoprecipitated from 3d iMac cells expressing TLR7-HA; immunoblot with anti-HA and anti-GFP
T2 sequence: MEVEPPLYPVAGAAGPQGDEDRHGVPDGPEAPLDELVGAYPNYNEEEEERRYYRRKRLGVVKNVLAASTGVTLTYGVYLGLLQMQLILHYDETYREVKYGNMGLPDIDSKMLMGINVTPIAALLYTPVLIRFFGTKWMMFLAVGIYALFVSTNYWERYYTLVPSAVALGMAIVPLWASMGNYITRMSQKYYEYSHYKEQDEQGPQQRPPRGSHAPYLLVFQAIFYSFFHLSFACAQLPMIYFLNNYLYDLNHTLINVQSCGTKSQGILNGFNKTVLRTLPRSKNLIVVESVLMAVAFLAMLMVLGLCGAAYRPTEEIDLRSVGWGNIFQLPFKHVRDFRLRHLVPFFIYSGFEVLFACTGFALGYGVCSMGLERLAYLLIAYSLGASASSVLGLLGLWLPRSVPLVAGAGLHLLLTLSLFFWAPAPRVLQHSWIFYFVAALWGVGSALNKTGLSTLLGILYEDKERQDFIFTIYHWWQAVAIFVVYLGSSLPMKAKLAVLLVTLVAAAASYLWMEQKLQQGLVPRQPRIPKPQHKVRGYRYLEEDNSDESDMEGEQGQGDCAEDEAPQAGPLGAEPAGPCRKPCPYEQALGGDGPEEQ

[3] = target: T3, TLR9-HA, full-length forms (ER and Golgi-modified precursor) (UniProt Q9EQU3); assay: co-IP; 3d iMac cells expressing TLR9-HA, TLR7-V5-His and WT UNC93B1-GFP lysed in TNT buffer, incubated with anti-HA matrix or anti-V5 protein A/G beads; immunoblot with HA, GFP and V5 antibodies
T3 sequence: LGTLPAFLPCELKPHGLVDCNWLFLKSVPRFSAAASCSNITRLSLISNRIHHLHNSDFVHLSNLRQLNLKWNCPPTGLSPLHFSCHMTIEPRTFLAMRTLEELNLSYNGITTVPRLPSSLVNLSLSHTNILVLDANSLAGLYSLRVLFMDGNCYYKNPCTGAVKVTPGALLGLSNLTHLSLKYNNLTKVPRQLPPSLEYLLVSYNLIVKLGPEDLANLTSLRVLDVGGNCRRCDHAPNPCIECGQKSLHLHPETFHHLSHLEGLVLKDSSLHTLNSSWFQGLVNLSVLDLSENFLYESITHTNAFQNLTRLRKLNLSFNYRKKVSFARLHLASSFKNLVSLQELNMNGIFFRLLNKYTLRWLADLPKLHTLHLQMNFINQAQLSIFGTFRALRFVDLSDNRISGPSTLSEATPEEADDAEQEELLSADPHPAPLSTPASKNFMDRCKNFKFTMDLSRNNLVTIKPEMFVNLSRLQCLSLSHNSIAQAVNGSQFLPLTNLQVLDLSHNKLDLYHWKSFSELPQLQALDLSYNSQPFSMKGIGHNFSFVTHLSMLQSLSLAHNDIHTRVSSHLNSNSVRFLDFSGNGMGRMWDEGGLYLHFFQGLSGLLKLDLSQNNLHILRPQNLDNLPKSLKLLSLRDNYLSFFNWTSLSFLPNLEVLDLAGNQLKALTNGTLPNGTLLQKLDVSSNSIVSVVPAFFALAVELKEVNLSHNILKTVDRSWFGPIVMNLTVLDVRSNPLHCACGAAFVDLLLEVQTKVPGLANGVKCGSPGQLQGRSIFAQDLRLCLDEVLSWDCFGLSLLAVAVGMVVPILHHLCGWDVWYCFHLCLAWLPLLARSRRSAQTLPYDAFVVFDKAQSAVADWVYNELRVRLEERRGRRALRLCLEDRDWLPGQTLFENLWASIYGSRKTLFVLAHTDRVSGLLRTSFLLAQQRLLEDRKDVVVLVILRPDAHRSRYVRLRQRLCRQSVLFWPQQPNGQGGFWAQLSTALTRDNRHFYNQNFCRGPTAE

B1: TLR9-HA, full-length forms (ER and Golgi-modified precursor) (receptor, UniProt Q9EQU3 26-1032)
chain: LGTLPAFLPCELKPHGLVDCNWLFLKSVPRFSAAASCSNITRLSLISNRIHHLHNSDFVHLSNLRQLNLKWNCPPTGLSPLHFSCHMTIEPRTFLAMRTLEELNLSYNGITTVPRLPSSLVNLSLSHTNILVLDANSLAGLYSLRVLFMDGNCYYKNPCTGAVKVTPGALLGLSNLTHLSLKYNNLTKVPRQLPPSLEYLLVSYNLIVKLGPEDLANLTSLRVLDVGGNCRRCDHAPNPCIECGQKSLHLHPETFHHLSHLEGLVLKDSSLHTLNSSWFQGLVNLSVLDLSENFLYESITHTNAFQNLTRLRKLNLSFNYRKKVSFARLHLASSFKNLVSLQELNMNGIFFRLLNKYTLRWLADLPKLHTLHLQMNFINQAQLSIFGTFRALRFVDLSDNRISGPSTLSEATPEEADDAEQEELLSADPHPAPLSTPASKNFMDRCKNFKFTMDLSRNNLVTIKPEMFVNLSRLQCLSLSHNSIAQAVNGSQFLPLTNLQVLDLSHNKLDLYHWKSFSELPQLQALDLSYNSQPFSMKGIGHNFSFVTHLSMLQSLSLAHNDIHTRVSSHLNSNSVRFLDFSGNGMGRMWDEGGLYLHFFQGLSGLLKLDLSQNNLHILRPQNLDNLPKSLKLLSLRDNYLSFFNWTSLSFLPNLEVLDLAGNQLKALTNGTLPNGTLLQKLDVSSNSIVSVVPAFFALAVELKEVNLSHNILKTVDRSWFGPIVMNLTVLDVRSNPLHCACGAAFVDLLLEVQTKVPGLANGVKCGSPGQLQGRSIFAQDLRLCLDEVLSWDCFGLSLLAVAVGMVVPILHHLCGWDVWYCFHLCLAWLPLLARSRRSAQTLPYDAFVVFDKAQSAVADWVYNELRVRLEERRGRRALRLCLEDRDWLPGQTLFENLWASIYGSRKTLFVLAHTDRVSGLLRTSFLLAQQRLLEDRKDVVVLVILRPDAHRSRYVRLRQRLCRQSVLFWPQQPNGQGGFWAQLSTALTRDNRHFYNQNFCRGPTAE
For B1, the binding [1] was “binds”.

B2: TLR7-HA, full-length form (receptor, UniProt P58681 27-1050)
chain: FRWFPKTLPCEVKVNIPEAHVIVDCTDKHLTEIPEGIPTNTTNLTLTINHIPSISPDSFRRLNHLEEIDLRCNCVPVLLGSKANVCTKRLQIRPGSFSGLSDLKALYLDGNQLLEIPQDLPSSLHLLSLEANNIFSITKENLTELVNIETLYLGQNCYYRNPCNVSYSIEKDAFLVMRNLKVLSLKDNNVTAVPTTLPPNLLELYLYNNIIKKIQENDFNNLNELQVLDLSGNCPRCYNVPYPCTPCENNSPLQIHDNAFNSLTELKVLRLHSNSLQHVPPTWFKNMRNLQELDLSQNYLAREIEEAKFLHFLPNLVELDFSFNYELQVYHASITLPHSLSSLENLKILRVKGYVFKELKNSSLSVLHKLPRLEVLDLGTNFIKIADLNIFKHFENLKLIDLSVNKISPSEESREVGFCPNAQTSVDRHGPQVLEALHYFRYDEYARSCRFKNKEPPSFLPLNADCHIYGQTLDLSRNNIFFIKPSDFQHLSFLKCLNLSGNTIGQTLNGSELWPLRELRYLDFSNNRLDLLYSTAFEELQSLEVLDLSSNSHYFQAEGITHMLNFTKKLRLLDKLMMNDNDISTSASRTMESDSLRILEFRGNHLDVLWRAGDNRYLDFFKNLFNLEVLDISRNSLNSLPPEVFEGMPPNLKNLSLAKNGLKSFFWDRLQLLKHLEILDLSHNQLTKVPERLANCSKSLTTLILKHNQIRQLTKYFLEDALQLRYLDISSNKIQVIQKTSFPENVLNNLEMLVLHHNRFLCNCDAVWFVWWVNHTDVTIPYLATDVTCVGPGAHKGQSVISLDLYTCELDLTNLILFSVSISSVLFLMVVMTTSHLFFWDMWYIYYFWKAKIKGYQHLQSMESCYDAFIVYDTKNSAVTEWVLQELVAKLEDPREKHFNLCLEERDWLPGQPVLENLSQSIQLSKKTVFVMTQKYAKTESFKMAFYLSHQRLLDEKVDVIILIFLEKPLQKSKFLQLRKRLCRSSVLEWPANPQAHPYFWQCLKNALTTDNHVAYSQMFKETV
In the case of B2, the binding [2] is reported as “binds”.

B3: TLR7-V5-His (receptor, UniProt P58681 27-1050)
chain: FRWFPKTLPCEVKVNIPEAHVIVDCTDKHLTEIPEGIPTNTTNLTLTINHIPSISPDSFRRLNHLEEIDLRCNCVPVLLGSKANVCTKRLQIRPGSFSGLSDLKALYLDGNQLLEIPQDLPSSLHLLSLEANNIFSITKENLTELVNIETLYLGQNCYYRNPCNVSYSIEKDAFLVMRNLKVLSLKDNNVTAVPTTLPPNLLELYLYNNIIKKIQENDFNNLNELQVLDLSGNCPRCYNVPYPCTPCENNSPLQIHDNAFNSLTELKVLRLHSNSLQHVPPTWFKNMRNLQELDLSQNYLAREIEEAKFLHFLPNLVELDFSFNYELQVYHASITLPHSLSSLENLKILRVKGYVFKELKNSSLSVLHKLPRLEVLDLGTNFIKIADLNIFKHFENLKLIDLSVNKISPSEESREVGFCPNAQTSVDRHGPQVLEALHYFRYDEYARSCRFKNKEPPSFLPLNADCHIYGQTLDLSRNNIFFIKPSDFQHLSFLKCLNLSGNTIGQTLNGSELWPLRELRYLDFSNNRLDLLYSTAFEELQSLEVLDLSSNSHYFQAEGITHMLNFTKKLRLLDKLMMNDNDISTSASRTMESDSLRILEFRGNHLDVLWRAGDNRYLDFFKNLFNLEVLDISRNSLNSLPPEVFEGMPPNLKNLSLAKNGLKSFFWDRLQLLKHLEILDLSHNQLTKVPERLANCSKSLTTLILKHNQIRQLTKYFLEDALQLRYLDISSNKIQVIQKTSFPENVLNNLEMLVLHHNRFLCNCDAVWFVWWVNHTDVTIPYLATDVTCVGPGAHKGQSVISLDLYTCELDLTNLILFSVSISSVLFLMVVMTTSHLFFWDMWYIYYFWKAKIKGYQHLQSMESCYDAFIVYDTKNSAVTEWVLQELVAKLEDPREKHFNLCLEERDWLPGQPVLENLSQSIQLSKKTVFVMTQKYAKTESFKMAFYLSHQRLLDEKVDVIILIFLEKPLQKSKFLQLRKRLCRSSVLEWPANPQAHPYFWQCLKNALTTDNHVAYSQMFKETV
B3 was tested, and the binding [3] was “no binding”.
